Measurements published in the BET-seq Pho4 binding data (Le et al. 2018).
The list shows a part of the results. These are noisy estimates, calculated here from bound and input reads.

What follows are sequences tested against T1, Pho4 (S. cerevisiae) (UniProt P07270) (assay: relative binding free energy (BET-seq); higher = weaker binding). Conditions: reference: library average.
T1 sequence: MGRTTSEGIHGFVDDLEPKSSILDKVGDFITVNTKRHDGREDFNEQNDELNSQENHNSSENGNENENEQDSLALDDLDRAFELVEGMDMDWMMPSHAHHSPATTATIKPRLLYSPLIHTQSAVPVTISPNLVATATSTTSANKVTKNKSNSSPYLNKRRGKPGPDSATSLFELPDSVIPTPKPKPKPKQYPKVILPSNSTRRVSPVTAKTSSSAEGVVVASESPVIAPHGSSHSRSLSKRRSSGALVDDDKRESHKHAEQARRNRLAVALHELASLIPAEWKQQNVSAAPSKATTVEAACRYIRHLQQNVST

Sequence | relative binding free energy
TGACACACGTGTTAGG | 0.1 kcal/mol
AGTTTCACGTGGTTAT | 0.24 kcal/mol
AGTGTCACGTGTCGCG | 0.09 kcal/mol
TTTTGCACGTGAGCTT | 0.08 kcal/mol
AGTCTCACGTGTATGG | 0.16 kcal/mol
CGGGACACGTGGGCTG | -0.26 kcal/mol
TAAATCACGTGTGGTT | 0.2 kcal/mol
ATTTGCACGTGTTGTC | 0.19 kcal/mol
AGTCTCACGTGTGTGG | 0.25 kcal/mol
TAGATCACGTGGTTAG | 0.19 kcal/mol
AGTGTCACGTGTTTAA | 0.03 kcal/mol
CTTGTCACGTGCGCGT | -0.05 kcal/mol
GAGTGCACGTGGGTGG | -0.05 kcal/mol
ATATCCACGTGCGGGG | 0.03 kcal/mol
GTGGACACGTGGGCTA | -0.14 kcal/mol
TGTCGCACGTGGTCAG | -0.21 kcal/mol
CAATGCACGTGTGTAT | -0.01 kcal/mol
TTGACCACGTGATGGG | 0.14 kcal/mol
TATAACACGTGTTGAT | -0.05 kcal/mol
ATGTGCACGTGATGGG | 0.09 kcal/mol
GTGTACACGTGGCGCG | -0.04 kcal/mol
GTATTCACGTGGCCGG | 0.2 kcal/mol
GTTGACACGTGTATAA | 0.07 kcal/mol
GTTAGCACGTGGCTGG | -0.12 kcal/mol
TATGGCACGTGGTGTC | -0.24 kcal/mol

Sequence | relative binding free energy
CAGTTCACGTGATGTT | 0.39 kcal/mol
TATCGCACGTGGTTGT | -0.12 kcal/mol
TATTACACGTGTAGGT | 0.18 kcal/mol
TTAGGCACGTGGTACG | -0.26 kcal/mol
TTATGCACGTGTGTTA | 0.04 kcal/mol
TGGTGCACGTGTTTAA | -0.11 kcal/mol
TTTGACACGTGCGTGC | -0.07 kcal/mol
GTAGTCACGTGGGTGG | -0.02 kcal/mol
CTTTGCACGTGGGTTG | -0.15 kcal/mol
TTATGCACGTGCGGGT | 0.01 kcal/mol
GCTCTCACGTGGGTGG | 0.15 kcal/mol
GGGTCCACGTGGCAGG | -0.11 kcal/mol
ATTCACACGTGCGGGG | 0.02 kcal/mol
AGCAACACGTGGTGGG | -0.12 kcal/mol
TTGCTCACGTGGCAGG | 0.07 kcal/mol
TGTCGCACGTGCGTGA | -0.16 kcal/mol
GGAGCCACGTGGGGTG | -0.33 kcal/mol
GGTGTCACGTGGCCGG | 0.04 kcal/mol
CTGTTCACGTGTGTCG | 0.27 kcal/mol
TGAAGCACGTGTTTAG | -0.08 kcal/mol
AATGGCACGTGATTTG | 0.15 kcal/mol
GTATTCACGTGGATGT | 0.27 kcal/mol
ATGTACACGTGTGTCA | -0.03 kcal/mol
GTTATCACGTGTATAA | 0.11 kcal/mol
TATTGCACGTGGGAGC | -0.04 kcal/mol

Sequence | relative binding free energy
GGGCACACGTGGAGGC | 0.16 kcal/mol
AAAGTCACGTGGGCTG | -0.04 kcal/mol
ATAGACACGTGGTGTA | -0.16 kcal/mol
TCATGCACGTGGGTAG | -0.21 kcal/mol
TGTCGCACGTGGGAGG | -0.12 kcal/mol
AATTGCACGTGTGTTA | 0.11 kcal/mol
TTACTCACGTGGTCTG | 0.1 kcal/mol
GTTTACACGTGATAAT | 0.19 kcal/mol
GTTTACACGTGGATTA | 0.04 kcal/mol
TTTATCACGTGGGAGA | 0.03 kcal/mol
CGTAGCACGTGGGGTT | -0.11 kcal/mol
TAGATCACGTGTTTTG | 0.2 kcal/mol
GTGATCACGTGGGGGT | 0.02 kcal/mol
TGGGTCACGTGCAAGG | 0.13 kcal/mol
TTTCTCACGTGAGTTG | 0.35 kcal/mol
TTAGGCACGTGGGGTC | -0.2 kcal/mol
ATTGACACGTGCTTGG | -0.1 kcal/mol
TCATACACGTGGTATG | -0.03 kcal/mol
TCCGTCACGTGTGTGG | 0.03 kcal/mol
TTATGCACGTGCGTAG | -0.1 kcal/mol
CAAGTCACGTGGGTAA | 0.11 kcal/mol
ATTTTCACGTGGAGTC | 0.23 kcal/mol
ACTGTCACGTGTGGTG | 0.08 kcal/mol
GGTGTCACGTGATTCG | 0.23 kcal/mol
GTATTCACGTGAGTTG | 0.44 kcal/mol

Sequence | relative binding free energy
GCGGACACGTGTTGTA | 0.11 kcal/mol
GGTAGCACGTGGGTCG | -0.18 kcal/mol
TCGTACACGTGGTTTT | 0.04 kcal/mol
AATGACACGTGGGTTA | -0.12 kcal/mol
GAGGGCACGTGTTGTC | -0.05 kcal/mol
GAGCACACGTGGTGGA | 0.13 kcal/mol
CGATACACGTGGTTGT | -0.04 kcal/mol
TAGTGCACGTGTATGA | 0.07 kcal/mol
GGTTACACGTGTGTAT | 0.22 kcal/mol
TGCGACACGTGGTTGA | 0.09 kcal/mol
AGTGGCACGTGGTAGT | -0.13 kcal/mol
CGGTACACGTGGTCGG | -0.15 kcal/mol
GGTGGCACGTGGCAGG | -0.18 kcal/mol
TGTGACACGTGAAAGT | 0.35 kcal/mol
AGGTTCACGTGGCAAT | 0.36 kcal/mol
CGTAACACGTGGTTTT | -0.04 kcal/mol
GACTACACGTGGGTGT | -0.03 kcal/mol
TGGGTCACGTGTTCGA | 0.12 kcal/mol
TGGTACACGTGCGATA | 0.14 kcal/mol
GGCGGCACGTGTTTGT | -0.01 kcal/mol
AAGGTCACGTGGGCGG | -0.03 kcal/mol
TTGTGCACGTGCAGGG | -0.01 kcal/mol
TGACTCACGTGGCGTG | 0.13 kcal/mol
GCTAACACGTGGTGGG | -0.15 kcal/mol
GTTGTCACGTGATCAG | -0.03 kcal/mol

Sequence | relative binding free energy
TAAGGCACGTGTGCGG | -0.12 kcal/mol
TGAAGCACGTGGGTAG | -0.21 kcal/mol
ATGCGCACGTGTTAGT | -0.1 kcal/mol
GTCTGCACGTGGTGAG | -0.03 kcal/mol
GGTAGCACGTGGGCAG | -0.3 kcal/mol
GTAGGCACGTGTTGGT | 0.02 kcal/mol
GCGTACACGTGTGGGG | 0.01 kcal/mol
GGTTCCACGTGGAGGG | 0.01 kcal/mol
ATTTACACGTGTCTGG | 0.03 kcal/mol
TCCGTCACGTGGGTGA | -0.02 kcal/mol
AGTAACACGTGTTCGT | -0.07 kcal/mol
TGAGGCACGTGTACTT | -0.01 kcal/mol
TGGTTCACGTGTATAA | 0.25 kcal/mol
AGTCGCACGTGTTTGA | -0.06 kcal/mol
TTGTTCACGTGGGCAT | 0.21 kcal/mol
TAAGTCACGTGCTAAG | 0.22 kcal/mol
TTCAACACGTGTATGT | 0.03 kcal/mol
GGTAGCACGTGTGTGG | -0.02 kcal/mol
TTGTCCACGTGGGGCG | -0.13 kcal/mol
CTGTTCACGTGGCGTG | 0.18 kcal/mol
CGGGGCACGTGGGCTA | -0.19 kcal/mol
GGCGTCACGTGTCGTT | 0.15 kcal/mol
GGTGGCACGTGAATAT | 0.28 kcal/mol
TAGTGCACGTGGATTA | 0.02 kcal/mol
TGAGGCACGTGTGCCG | -0.07 kcal/mol

Sequence | relative binding free energy
TGGAGCACGTGGGAAG | -0.04 kcal/mol
GTGCGCACGTGGCCGG | -0.14 kcal/mol
AAAGTCACGTGTGTAG | 0.18 kcal/mol
GTTTGCACGTGCTTAA | 0.02 kcal/mol
AGTACCACGTGTAGGA | 0.06 kcal/mol
GGGATCACGTGAGTTC | 0.52 kcal/mol
TGGTGCACGTGGTGTA | -0.12 kcal/mol
GCGTTCACGTGATCGG | 0.48 kcal/mol
GGAGTCACGTGTTGGA | 0.16 kcal/mol
AGGTACACGTGGGCCT | 0.03 kcal/mol
ATGTACACGTGTTGGT | 0.1 kcal/mol
TTCGTCACGTGAGCGT | 0.16 kcal/mol
AGTGTCACGTGAGAGA | 0.26 kcal/mol
TGGTGCACGTGCTCTT | 0.05 kcal/mol
ACTGGCACGTGATGGG | -0.06 kcal/mol
TTTAACACGTGCGGTT | 0 kcal/mol
TGCTGCACGTGACGGT | -0.04 kcal/mol
ACTTTCACGTGAAGGT | 0.28 kcal/mol
GGTTGCACGTGGCCGG | -0.08 kcal/mol
TGCTTCACGTGGCGTA | 0.25 kcal/mol
GTGGTCACGTGCCAGG | 0.04 kcal/mol
